Test results published in the antibiotic and cytotoxicity screens of Wong et al. (2023).
The list shows a part of the results.

system: HSkMC (human skeletal muscle cells); assay: cytotoxicity call (relative viability < 0.9); conditions: 10 µM

Question: Which cytotoxicity call does the source give for `C[C@H](CO)N1C[C@H](C)[C@H](CN(C)C(=O)Nc2ccc(C(F)(F)F)cc2)Oc2ccc(NC(=O)Cc3ccccc3)cc2CC1=O` here?
Answer: inactive

Question: With `C[C@@H]1CCCCO[C@@H](CN(C)C(=O)Nc2ccccc2)[C@@H](C)CN([C@@H](C)CO)C(=O)c2cc(NC(=O)Nc3ccccc3)ccc2O1` as the molecule, how does the cytotoxicity call read?
Answer: inactive

Question: Which cytotoxicity call does the source give for `C[C@@H]1CCCCO[C@@H](CN(C)C(=O)Nc2ccc3c(c2)OCO3)[C@@H](C)CN([C@@H](C)CO)C(=O)c2cc(NC(=O)Nc3ccc4c(c3)OCO4)ccc2O1` here?
Answer: inactive

Question: With `C[C@H](NC(=O)N(C)C[C@H]1OCc2ccccc2-c2c(n(C)c3ccccc23)C(=O)N([C@@H](C)CO)C[C@@H]1C)c1ccccc1` as the molecule, how does the cytotoxicity call read?
Answer: inactive

Question: Which cytotoxicity call does the source give for `Cc1ccc(S(=O)(=O)N(C)C[C@@H]2Oc3c(NS(C)(=O)=O)cccc3C(=O)N([C@@H](C)CO)C[C@H]2C)cc1` here?
Answer: inactive

Question: Which cytotoxicity call does the source give for `C[C@H](CO)N1C[C@H](C)[C@@H](CN(C)S(=O)(=O)c2cn(C)cn2)Oc2ccc(NS(=O)(=O)c3cn(C)cn3)cc2CC1=O` here?
Answer: inactive

Question: For `CC=Cc1ccc2n(c1=O)C[C@@H]1[C@@H](CO)[C@H](C(=O)NCCc3cn(C)cn3)N(C(=O)CC)[C@H]21`, which cytotoxicity call is on record?
Answer: inactive

Question: How did the cytotoxicity call turn out when `COc1ccc(S(=O)(=O)N(C)C[C@@H]2Oc3ccc(NC(=O)Cc4ccccc4)cc3CC(=O)N([C@H](C)CO)C[C@H]2C)cc1` was run?
Answer: inactive

Question: For `Cc1ccc(S(=O)(=O)Nc2ccc3c(c2)C(=O)N([C@@H](C)CO)C[C@H](C)[C@@H](CN(C)Cc2ccc(-c4ccccc4)cc2)O3)cc1`, which cytotoxicity call is on record?
Answer: inactive

Question: With `CO[C@@H]1CN(C)C(=O)c2ccc(NC(=O)c3ccc(F)cc3)cc2OC[C@H](C)N(C(=O)CN(C)C)C[C@@H]1C` as the molecule, how does the cytotoxicity call read?
Answer: inactive
